The source gives no read counts; variants with many changes may rest on few reads.

The labels stand for the following.
B1: LINE1-full (parent)
chain: UACGUAGGUGGUUUUCCCCUGAUAGUGCUAAGGGGGCCUGGAAGUUUGGACUGGGCAGAGCUCAACACAGCGUGGCAAAGUGGCUGUGGCUAGACUGCCUCUCUGGAUUCCUCGUCACUCAGCAGGGCAUCUCUGAGAGAAAUGCC

The series covers variants of B1. Nature of the series: self-cleavage, relative activity (ratio to wild type); higher = more cleavage; in vitro, sequencing; the parent is a self-cleaving ribozyme.
Take UACGUAGGUGGUUUUCCCCUGAUAGUGCUAAGGGGGCCUGGAAGUUUGGACUGGGCAGAGCUCAACACAGCGUGGCUAAGCGGCAGUGGCUAGACUGCCUCUCUGGAUUCCUCGUCACUCAGCAGGGCAUCUCUGAGAGAAAUGCC: the self-cleavage stood at 0.33. For UACGUAGGUGGUUUUCCCCUGAUAGUGCUAAGGGGGCCUGGAAGUUUGGACUGGGCAGAGCUCAACACAGCGUGGCUAAGUGGCUGUGGCUAGACUGCCUCUCUGGAUUCCUCGUCACUCAGCAGGGCAUCCCUGAGGGAAAUGCC, the self-cleavage was 0.54.

UACGUAGGUGGUUUUCCCCUGAUAGUGCUAAGGGGGCCUGGAAGUUUGGACUGGGCAGAGCUCAACACAGCGUGGCAGAGUGGCUGUGGCUAGCCUGCCUCUCUGGAAUCCUCGUCACUCAGCAGGGCACCUCUGAGAGAAAUGCC: the self-cleavage was 0. With UACGUAGGUGGUUUUCCCCUGAUAGUGCUAAGGGGGCCUGGAAGUUUGGACUGGGCAGAGCUCAACACAGCGUGGCUAAGUGGCCGUGGCUAGACUGCCUCUCUGGAUUCCUCGUCACUCUGCAGGGCAUCUCUGAGAGAAAUGCC, the self-cleavage stood at 0.09. Take UACGUAGGUGGUUUUCCCCUGAUAGUGCUAAGGGGGCCUGGAAGUUUGGACUGGGCAGAGCUCAACACAGCGUGGCAGAGUGGCUGAGGCUAGACUGCUUCUCUGGAUUCCUCGUCACUCAGCAGGGCAUCUCUGAGAGAAAUGCC: the self-cleavage is 0.03. To UACGUAGGUGGUUUUCCCCUGAUAGUGCUAAGGGGGCCUGGAAGUUUGGACUGGGCAGAGCUCAACACAGCGUGGCAGAGUGGCUGUGGCUAGACUGCCUCUCUGGAUUCCUCGUCACUCAGCAAGGCAGCUCUGAGAGAAAUGCC belongs 1.59; to UACGUAGGUGGUUUUCCCCUGAUAGUGCUAAGGGGGCCUGGAAGUUUGGACUGGGCAGAGCUCAACACAGCGUGGCAGGGUGGCUGUGGCUAGACUGCCUCUCAGGAUUCCUCGUCACUCAGCAGGGCAUCCCUGAGAGAAAUGCC, 1.62; to UACGUAGGUGGUUUUCCCCUGAUAGUGCUAAGGGGGCCUGGAAGUUUGGACUGGGCAGAGCUCAACACAGCGUGGCAGGGUGGCUGUGGCAAGACUGCCUCUCUGGAUUCCUCGUCACUCAGCAGGGCAUCUCUGAGAGAAAUGCC, 1.06. To UACGUAGGUGGUUUUCCCCUGAUAGUGCUAAGGGGGCCUGGAAGUUUGGACUGGGCAGAGCUCAACACAGCGUGGCUAAGAGGCUGUGGCUAGACUGCCUCACUGGAUUCCUCGUCACUCAGCAGGGCAUCUCUGAGAGAAAUGCC belongs 2.37. In the case of UACGUAGGUGGUUUUCCCCUGAUAGUGCUAAGGGGGCCUGGAAGUUUGGACUGGGCAGAGCUCAACACAGCGUGGCUAAGUGGCUGUGGCUAGACUGCCUCACUGGAUUCCUCGUCACUCAGCAGGGCAUCUCUGGGAGAAAUGCC, the self-cleavage amounted to 1.49. Turning to UACGUAGGUGGUUUUCCCCUGAUAGUGCUAAGGGGGCCUGGAAGUUUGGACUGGGCAGAGCUCAACACAGCGUGGCAGAGUGGCUGUGGCUAGACUGCCUCUCUGGAUUCCUCGUCACUCAUCAUGGCAUCUCUGAGAGAAACGCC, the self-cleavage came to 1.42. For UACGUAGGUGGUUUUCCCCUGAUAGUGCUAAGGGGGCCUGGAAGUUUGGACUGGGCAGAGCUCAACACAGCGUGGCAGAGUGGCUGUCGCUAGACUGCCUCUCUGGAUUCCUCGUCACUCAGCAGGGCAUCUCUGAGAGAAGUGCC, the self-cleavage is 0.13. To UACGUAGGUGGUUUUCCCCUGAUAGUGCUAAGGGGGCCUGGAAGUUUGGACUGGGCAGAGCUCAACACAGCGUGGCAGAGUGGCUGUGGCUAGACUGCCUCUCUGGAUUCCUCGUCACUCAACAGGGCAUCUCUGAGAGAAGUGCC belongs 1.42; to UACGUAGGUGGUUUUCCCCUGAUAGUGCUAAGGGGGCCUGGAAGUUUGGACUGGGCAGAGCUCAACACAGCGUGGCAGAGUGGCUGUGGCCAGACUGCCUCUCUGGAUUCCUCGUCACUCAGCAGGGCGUCUCUGAGAGAAAUGCC, 0.24; to UACGUAGGUGGUUUUCCCCUGAUAGUGCUAAGGGGGCCUGGAAGUUUGGACUGGGCAGAGCUCAACACAGCGUGGCAGAGUGGCUGUGGCUAGACUGCCUCUCUGGAUUCCUCGUCAUUCAGCAGGGCACCUCUGAGAGAAAUGCC, 0.61. For the variant UACGUAGGUGGUUUUCCCCUGAUAGUGCUAAGGGGGCCUGGAAGUUUGGACUGGGCAGAGCUCAACACAGCGUGGCAGAGUGACUGUGGCUAGACUGCCUCUCUGGAAUCCUCGUCACUCAGCAGGGCAUCUCUGAGAGAAAUGCC, the self-cleavage was 0.62.

UACGUAGGUGGUUUUCCCCUGAUAGUGCUAAGGGGGCCUGGAAGUUUGGACUGGGCAGAGCUCAACACAGCGUGGCUAAGUGGCUGUGGCUAGACUGCCUCUCAGGAUUCCUCGUCACUCAGCAGGGCAUCUCUGAGAGAUAUGCC: the self-cleavage was found to be 1.01. Consider UACGUAGGUGGUUUUCCCCUGAUAGUGCUAAGGGGGCCUGGAAGUUUGGACUGGGCAGAGCUCAACACAGCGUGGCAGAGAGGCUGUGGCUAGACUGCCUCUCAGGAUUCCUCGUCACUCAGCAGGGCAUCUCUGAGAGAAAUGCC, for which the self-cleavage is 0.33. As to UACGUAGGUGGUUUUCCCCUGAUAGUGCUAAGGGGGCCUGGAAGUUUGGACUGGGCAGAGCUCAACACAGCGUGGCAGGGUGGCUGUGGCUAGACUGCCUCUCUGGAUUCCUCGUCUCUCAGCAGGGCAUCUCUGAGAGAAAUGCC, the self-cleavage is 0.61.

For the variant UACGUAGGUGGUUUUCCCCUGAUAGUGCUAAGGGGGCCUGGAAGUUUGGACUGGGCAGAGCUCAACACAGCGUGGCAGAGUGGCUGUGGCUAGACUGCCUCUCUGGAUUCCUAGUCGCUCAGCAGGGCAUCUCUGAGUGAAAUGCC, the self-cleavage was 1.24. As to UACGUAGGUGGUUUUCCCCUGAUAGUGCUAAGGGGGCCUGGAAGUUUGGACUGGGCAGAGCUCAACACAGCGUGGCUAAGUGGCCGUGGCUAGACUGCCUCUCUGGAUUCCUCGCCACUCAGCAGGGCAUCUCUGAGAGAAAUGCC, the self-cleavage is 0.15. In the case of UACGUAGGUGGUUUUCCCCUGAUAGUGCUAAGGGGGCCUGGAAGUUUGGACUGGGCAGAGCUCAACACAGCGUGGCAGAGUGGCUGUGGCUAGACUGCCUCUCUGGAUCCCACGUCACUCAGCAGGGCAUCUCUGAGAGAAAUGCC, the self-cleavage was determined as 0.57.

Regarding UACGUAGGUGGUUUUCCCCUGAUAGUGCUAAGGGGGCCUGGAAGUUUGGACUGGGCAGAGCUCAACACAGCGUGGCAGAGUGGCAGUGGCUAGACUGCCUCUCUGGAUUCCUCGUCACUCAGCAGGGCAUCUCUGAAGGAAAUGCC, the self-cleavage came to 0.16.

Take UACGUAGGUGGUUUUCCCCUGAUAGUGCUAAGGGGGCCUGGAAGUUUGGACUGGGCAGAGCUCAACACAGCGUGGCAGAGUAGCUGUGGCUAGACUGCCUCUCUGGAUUCCCCGUCACUCAGCAGGGCAUCUCUGAGAGAAACGCC: the self-cleavage was 1.32. Turning to UACGUAGGUGGUUUUCCCCUGAUAGUGCUAAGGGGGCCUGGAAGUUUGGACUGGGCAGAGCUCAACACAGCGUGGCUAAGUGGCUGUGGCCAGACUGCCCCUCUGGAUUCCUCGUCACUCAGCAGGGCAUCUCUGAGAGAAAUGCC, the self-cleavage stood at 0.88. To UACGUAGGUGGUUUUCCCCUGAUAGUGCUAAGGGGGCCUGGAAGUUUGGACUGGGCAGAGCUCAACACAGCGUGGCAGAGUGGCUGUGGCUAGACUGCCUCUCUGGAUUCCUCGUCACCCAGCAGGGCAACUCUGAGAGAAAUGCC belongs 1.81. To UACGUAGGUGGUUUUCCCCUGAUAGUGCUAAGGGGGCCUGGAAGUUUGGACUGGGCAGAGCUCAACACAGCGUGGCUAAGUGGCUGUGGCUAGACCGCCUCUCUGGAUUCCGCGUCACUCAGCAGGGCAUCUCUGAGAGAAAUGCC belongs 0. Under UACGUAGGUGGUUUUCCCCUGAUAGUGCUAAGGGGGCCUGGAAGUUUGGACUGGGCAGAGCUCAACACAGCGUGGCAGAGUUGCUGUGGCAAGACUGCCUCUCUGGAUUCCUCGUCACUCAGCAGGGCAUCUCUGAGAGAAGUGCC stands 0.73; under UACGUAGGUGGUUUUCCCCUGAUAGUGCUAAGGGGGCCUGGAAGUUUGGACUGGGCAGAGCUCAACACAGCGUGGCUAAGCGGCUGUGGCUAGACUGCCACUCUGGAUUCCUCGUCACUCAGCAGGGCAUCUCUGAGAGGAAUGCC, 1.84. Turning to UACGUAGGUGGUUUUCCCCUGAUAGUGCUAAGGGGGCCUGGAAGUUUGGACUGGGCAGAGCUCAACACAGCGUGGCAGAGUGGCUGUGGCUAGUCUGCCCCUCUGGAUUCCUCGUCACUCAGCAGGGCAUCUCUGAGAGAAAUGCC, the self-cleavage came out at 0.21. To UACGUAGGUGGUUUUCCCCUGAUAGUGCUAAGGGGGCCUGGAAGUUUGGACUGGGCAGAGCUCAACACAGCGUGGCAGAGUGGCUGUGGCUAGACCGCCUCUCUGGAUUCCUCGUCACUCAGUAGGGCAUCCCUGAGGGAAAAGCC belongs 0.11; to UACGUAGGUGGUUUUCCCCUGAUAGUGCUAAGGGGGCCUGGAAGUUUGGACUGGGCAGAGCUCAACACAGCGUGGCAGAGUGGCUGUGGCUAGACUGCUUCUCUGGAUUCCUCGUCACUCAGCAGGGCAUCUCUGGGAGAAAUGCC, 1.34. In the case of UACGUAGGUGGUUUUCCCCUGAUAGUGCUAAGGGGGCCUGGAAGUUUGGACUGGGCAGAGCUCAACACAGCGUGGCUAAGUGGCUGUGGCAAGACUGCCUCUCUGGAUUCCUCGUCACCCAGCAGGGCAUCUCUGAGAGAAAUGCC, the self-cleavage came out at 0.58. Turning to UACGUAGGUGGUUUUCCCCUGAUAGUGCUAAGGGGGCCUGGAAGUUUGGACUGGGCAGAGCUCAACACAGCGUGGCAUAGUGGCUGUGGCUAGACUGCCUCUCUGGGUUCCUCGUCACUCAGCAGGGCAUCUCUGAGAGUAAUGCC, the self-cleavage worked out at 2.05. In the case of UACGUAGGUGGUUUUCCCCUGAUAGUGCUAAGGGGGCCUGGAAGUUUGGACUGGGCAGAGCUCAACACAGCGUGGCAGAGUGGCUGUGGCUAGACUGCCUCUCUGGAUUCCCCGUCACUCAGCAGGGCUUCUCUGAGAGAAAUGCC, the self-cleavage amounted to 1.42. To UACGUAGGUGGUUUUCCCCUGAUAGUGCUAAGGGGGCCUGGAAGUUUGGACUGGGCAGAGCUCAACACAGCGUGGCUAAGUGGCUGUGGCUAGACCGCCUCUCUGGAUUCCUCGUCACUCAGCAGGGCAUCUCUGAGUGUAAUGCC belongs 0; to UACGUAGGUGGUUUUCCCCUGAUAGUGCUAAGGGGGCCUGGAAGUUUGGACUGGGCAGAGCUCAACACAGCGUGGCAGAGUGGCCGUGGCUAGACUGCUUCUCUGGAUUCCUCGUCACUCAGCAGGGCAUCCCUGAGAGUAAUGCC, 0.08; to UACGUAGGUGGUUUUCCCCUGAUAGUGCUAAGGGGGCCUGGAAGUUUGGACUGGGCAGAGCUCAACACAGCGUGGCAGAGUGGCUGUGGCUAGACUGCCUCUCUGGAUUCCUCGCCACUCAGCAUGGCAUCUCUGAGAGAAGUGCC, 2.01. For the variant UACGUAGGUGGUUUUCCCCUGAUAGUGCUAAGGGGGCCUGGAAGUUUGGACUGGGCAGAGCUCAACACAGCGUGGCAGAGUGGCUGUGGCUAGACUGCCUCUCUGGAUUCCGUGUCACUCAGCAGGGCAUCUCUGAGAGAAAUGCC, the self-cleavage is 1.85.

The record behind these values is the RNAGym collection of RNA variant scans (doi:10.7554/elife.90254).
